Changes are numbered by the printed parent chain; changes in the protein carry UniProt numbers. This is one part of the list.
T1: RBFOX1 RRM (Homo sapiens, UniProt Q9NWB1 109-208)
T1 sequence: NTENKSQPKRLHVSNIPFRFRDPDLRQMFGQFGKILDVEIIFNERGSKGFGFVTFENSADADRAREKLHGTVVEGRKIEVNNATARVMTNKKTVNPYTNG

B1: AUCAUGU (DNA:RNA)
RNA: GGGAGACCGGAAUUCAGAUUGUCCAUCAUGUUUAAAUCCCGUCGUAGCCACCA
DNA 1: CAATCTGAATTCCGGTCTCCC
DNA 2: TGGTGGCTACGACGGGATT
B2: CACUUGU (DNA:RNA)
RNA: B1 RNA with A25C, U26A, A28U
DNA 1: CAATCTGAATTCCGGTCTCCC
DNA 2: TGGTGGCTACGACGGGATT
B3: GGCAUGU (DNA:RNA)
RNA: B1 RNA with A25G, U26G
DNA 1: CAATCTGAATTCCGGTCTCCC
DNA 2: TGGTGGCTACGACGGGATT
B4: UGAGCAG (DNA:RNA)
RNA: GGGAGACCGGAAUUCAGAUUGUCCUGAGCAGUUAAAUCCCGUCGUAGCCACCA
DNA 1: CAATCTGAATTCCGGTCTCCC
DNA 2: TGGTGGCTACGACGGGATT
B5: UAAAGGU (DNA:RNA)
RNA: B1 RNA with A25U, U26A, C27A, U29G
DNA 1: CAATCTGAATTCCGGTCTCCC
DNA 2: TGGTGGCTACGACGGGATT
B6: GCUUUUA (DNA:RNA)
RNA: B1 RNA with A25G, U26C, C27U, A28U, G30U, U31A
DNA 1: CAATCTGAATTCCGGTCTCCC
DNA 2: TGGTGGCTACGACGGGATT
B7: GGUUCAA (DNA:RNA)
RNA: B4 RNA with U25G, A27U, G28U, G31A
DNA 1: CAATCTGAATTCCGGTCTCCC
DNA 2: TGGTGGCTACGACGGGATT
B8: UUUAAGA (DNA:RNA)
RNA: B1 RNA with A25U, C27U, U29A, U31A
DNA 1: CAATCTGAATTCCGGTCTCCC
DNA 2: TGGTGGCTACGACGGGATT
B9: UACAUGA (DNA:RNA)
RNA: B1 RNA with A25U, U26A, U31A
DNA 1: CAATCTGAATTCCGGTCTCCC
DNA 2: TGGTGGCTACGACGGGATT
B10: CGAGUAU (DNA:RNA)
RNA: B4 RNA with U25C, C29U, G31U
DNA 1: CAATCTGAATTCCGGTCTCCC
DNA 2: TGGTGGCTACGACGGGATT
B11: UAGUACC (DNA:RNA)
RNA: B4 RNA with G26A, A27G, G28U, C29A, A30C, G31C
DNA 1: CAATCTGAATTCCGGTCTCCC
DNA 2: TGGTGGCTACGACGGGATT
B12: AAGUUGC (DNA:RNA)
RNA: B1 RNA with U26A, C27G, A28U, U31C
DNA 1: CAATCTGAATTCCGGTCTCCC
DNA 2: TGGTGGCTACGACGGGATT
B13: CUUUACA (DNA:RNA)
RNA: B1 RNA with A25C, C27U, A28U, U29A, G30C, U31A
DNA 1: CAATCTGAATTCCGGTCTCCC
DNA 2: TGGTGGCTACGACGGGATT
B14: UCGUGUA (DNA:RNA)
RNA: B4 RNA with G26C, A27G, G28U, C29G, A30U, G31A
DNA 1: CAATCTGAATTCCGGTCTCCC
DNA 2: TGGTGGCTACGACGGGATT
B15: CAAAUGU (DNA:RNA)
RNA: B1 RNA with A25C, U26A, C27A
DNA 1: CAATCTGAATTCCGGTCTCCC
DNA 2: TGGTGGCTACGACGGGATT
B16: CCAUAGU (DNA:RNA)
RNA: B1 RNA with A25C, U26C, C27A, A28U, U29A
DNA 1: CAATCTGAATTCCGGTCTCCC
DNA 2: TGGTGGCTACGACGGGATT
B17: GUACCCA (DNA:RNA)
RNA: B4 RNA with U25G, G26U, G28C, A30C, G31A
DNA 1: CAATCTGAATTCCGGTCTCCC
DNA 2: TGGTGGCTACGACGGGATT
B18: AACAGAG (DNA:RNA)
RNA: B1 RNA with U26A, U29G, G30A, U31G
DNA 1: CAATCTGAATTCCGGTCTCCC
DNA 2: TGGTGGCTACGACGGGATT
B19: UGUGUCC (DNA:RNA)
RNA: B4 RNA with A27U, C29U, A30C, G31C
DNA 1: CAATCTGAATTCCGGTCTCCC
DNA 2: TGGTGGCTACGACGGGATT
B20: GAAUUCA (DNA:RNA)
RNA: B1 RNA with A25G, U26A, C27A, A28U, G30C, U31A
DNA 1: CAATCTGAATTCCGGTCTCCC
DNA 2: TGGTGGCTACGACGGGATT
B21: AGGAGUG (DNA:RNA)
RNA: B1 RNA with U26G, C27G, U29G, G30U, U31G
DNA 1: CAATCTGAATTCCGGTCTCCC
DNA 2: TGGTGGCTACGACGGGATT
B22: UCAAAGU (DNA:RNA)
RNA: B1 RNA with A25U, U26C, C27A, U29A
DNA 1: CAATCTGAATTCCGGTCTCCC
DNA 2: TGGTGGCTACGACGGGATT
B23: GAAAGCA (DNA:RNA)
RNA: B1 RNA with A25G, U26A, C27A, U29G, G30C, U31A
DNA 1: CAATCTGAATTCCGGTCTCCC
DNA 2: TGGTGGCTACGACGGGATT
B24: CAGCGCC (DNA:RNA)
RNA: GGGAGACCGGAAUUCAGAUUGUCCCAGCGCCUUAAAUCCCGUCGUAGCCACCA
DNA 1: CAATCTGAATTCCGGTCTCCC
DNA 2: TGGTGGCTACGACGGGATT
B25: CUGGAAU (DNA:RNA)
RNA: B1 RNA with A25C, C27G, A28G, U29A, G30A
DNA 1: CAATCTGAATTCCGGTCTCCC
DNA 2: TGGTGGCTACGACGGGATT
B26: AAUCAUG (DNA:RNA)
RNA: B24 RNA with C25A, G27U, G29A, C30U, C31G
DNA 1: CAATCTGAATTCCGGTCTCCC
DNA 2: TGGTGGCTACGACGGGATT
B27: CUGGGUG (DNA:RNA)
RNA: B24 RNA with A26U, C28G, C30U, C31G
DNA 1: CAATCTGAATTCCGGTCTCCC
DNA 2: TGGTGGCTACGACGGGATT
B28: GGCAGCG (DNA:RNA)
RNA: B1 RNA with A25G, U26G, U29G, G30C, U31G
DNA 1: CAATCTGAATTCCGGTCTCCC
DNA 2: TGGTGGCTACGACGGGATT
B29: UCUACGA (DNA:RNA)
RNA: B1 RNA with A25U, U26C, C27U, U29C, U31A
DNA 1: CAATCTGAATTCCGGTCTCCC
DNA 2: TGGTGGCTACGACGGGATT
B30: AAUAAGC (DNA:RNA)
RNA: B1 RNA with U26A, C27U, U29A, U31C
DNA 1: CAATCTGAATTCCGGTCTCCC
DNA 2: TGGTGGCTACGACGGGATT
B31: GCCCGCU (DNA:RNA)
RNA: B24 RNA with C25G, A26C, G27C, C31U
DNA 1: CAATCTGAATTCCGGTCTCCC
DNA 2: TGGTGGCTACGACGGGATT

Target: T1, RBFOX1 RRM
Assay: EMSA; HiTS-Eq, 1 nM pool, 10 min; buffer printed only for the single-RNA assays: 10 mM Tris pH 7.5, 150 mM NaCl, 3.4 mM EDTA, 0.001% NP-40, 30 C
Conditions: tags: His6 N-terminal (pET28a); label: 5' 32P
Outline: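 A pool of RNA with 7 randomized nucleotides, 5′-radiolabelled and with DNA-annealed flanks, was equilibrated at 1 nM for 10 min in 50 µL with purified RbFox RRM, wild type or mutant, across increasing protein concentrations. Free RNA was separated by 8% native PAGE, excised, reverse-transcribed, barcoded by PCR and sequenced. Relative association constants were obtained from read-count changes of each RNA species versus the control reaction and normalised to the cognate motif.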

Compared with B1, B2 is higher in binding signal: 0.00301 KA relative to UGCAUGU for the first, 0.00747 KA relative to UGCAUGU for the second.

Compared with B3, B4 is lower in binding signal: 0.426 KA relative to UGCAUGU for the first, 0.019 KA relative to UGCAUGU for the second.

Compared with B5, B6 is higher in binding signal: 0.00976 KA relative to UGCAUGU for the first, 0.00997 KA relative to UGCAUGU for the second.

First: B7
Second: B8
The binding signal of the first is lower: 0.0096 KA relative to UGCAUGU for the first, 0.00979 KA relative to UGCAUGU for the second.

First: B9
Second: B10
The binding signal of the first is higher: 0.0103 KA relative to UGCAUGU for the first, 0.00513 KA relative to UGCAUGU for the second.

First: B11
Second: B12
The binding signal of the first is lower: 0.00724 KA relative to UGCAUGU for the first, 0.0145 KA relative to UGCAUGU for the second.

Compared with B13, B14 is higher in binding signal: 0.00298 KA relative to UGCAUGU for the first, 0.0149 KA relative to UGCAUGU for the second.

First: B15
Second: B16
The binding signal of the first is higher: 0.00677 KA relative to UGCAUGU for the first, 0.002 KA relative to UGCAUGU for the second.

First: B17
Second: B18
The binding signal of the first is lower: 0.0034 KA relative to UGCAUGU for the first, 0.00391 KA relative to UGCAUGU for the second.

Compared with B19, B20 is lower in binding signal: 0.0226 KA relative to UGCAUGU for the first, 0.00706 KA relative to UGCAUGU for the second.

Compared with B21, B22 is lower in binding signal: 0.0152 KA relative to UGCAUGU for the first, 0.0048 KA relative to UGCAUGU for the second.

First: B23
Second: B24
The binding signal of the first is higher: 0.0109 KA relative to UGCAUGU for the first, 0.00465 KA relative to UGCAUGU for the second.

First: B25
Second: B26
The binding signal of the first is higher: 0.0202 KA relative to UGCAUGU for the first, 0.00621 KA relative to UGCAUGU for the second.

First: B27
Second: B28
The binding signal of the first is higher: 0.0408 KA relative to UGCAUGU for the first, 0.0106 KA relative to UGCAUGU for the second.

Compared with B29, B30 is lower in binding signal: 0.00859 KA relative to UGCAUGU for the first, 0.00297 KA relative to UGCAUGU for the second.

B31 was tested, and the binding signal was 0.0168 KA relative to UGCAUGU.

From paper PMC9911399, “Two distinct binding modes provide the RNA-binding protein RbFox with extraordinary sequence specificity”
